{"source": "paper PMC9911399", "about": "“Two distinct binding modes provide the RNA-binding protein RbFox with extraordinary sequence specificity”", "binders": {"B1": {"name": "GGCUUAA (DNA:RNA)", "RNA": "GGGAGACCGGAAUUCAGAUUGUCCGGCUUAAUUAAAUCCCGUCGUAGCCACCA", "DNA 1": "CAATCTGAATTCCGGTCTCCC", "DNA 2": "TGGTGGCTACGACGGGATT"}, "B2": {"name": "AGAGAAC (DNA:RNA)", "RNA": "B1 RNA with G25A, C27A, U28G, U29A, A31C", "DNA 1": "CAATCTGAATTCCGGTCTCCC", "DNA 2": "TGGTGGCTACGACGGGATT"}, "B3": {"name": "GUUAACG (DNA:RNA)", "RNA": "B1 RNA with G26U, C27U, U28A, U29A, A30C, A31G", "DNA 1": "CAATCTGAATTCCGGTCTCCC", "DNA 2": "TGGTGGCTACGACGGGATT"}, "B4": {"name": "AUCCGGU (DNA:RNA)", "RNA": "B1 RNA with G25A, G26U, U28C, U29G, A30G, A31U", "DNA 1": "CAATCTGAATTCCGGTCTCCC", "DNA 2": "TGGTGGCTACGACGGGATT"}, "B5": {"name": "CUGACAC (DNA:RNA)", "RNA": "B1 RNA with G25C, G26U, C27G, U28A, U29C, A31C", "DNA 1": "CAATCTGAATTCCGGTCTCCC", "DNA 2": "TGGTGGCTACGACGGGATT"}, "B6": {"name": "AUUAAAC (DNA:RNA)", "RNA": "B1 RNA with G25A, G26U, C27U, U28A, U29A, A31C", "DNA 1": "CAATCTGAATTCCGGTCTCCC", "DNA 2": "TGGTGGCTACGACGGGATT"}, "B7": {"name": "AGAGUGC (DNA:RNA)", "RNA": "B1 RNA with G25A, C27A, U28G, A30G, A31C", "DNA 1": "CAATCTGAATTCCGGTCTCCC", "DNA 2": "TGGTGGCTACGACGGGATT"}, "B8": {"name": "ACGUUUC (DNA:RNA)", "RNA": "B1 RNA with G25A, G26C, C27G, A30U, A31C", "DNA 1": "CAATCTGAATTCCGGTCTCCC", "DNA 2": "TGGTGGCTACGACGGGATT"}, "B9": {"name": "CGGGUUU (DNA:RNA)", "RNA": "B1 RNA with G25C, C27G, U28G, A30U, A31U", "DNA 1": "CAATCTGAATTCCGGTCTCCC", "DNA 2": "TGGTGGCTACGACGGGATT"}, "B10": {"name": "GGCGUCG (DNA:RNA)", "RNA": "B1 RNA with U28G, A30C, A31G", "DNA 1": "CAATCTGAATTCCGGTCTCCC", "DNA 2": "TGGTGGCTACGACGGGATT"}, "B11": {"name": "AAUUUAG (DNA:RNA)", "RNA": "B1 RNA with G25A, G26A, C27U, A31G", "DNA 1": "CAATCTGAATTCCGGTCTCCC", "DNA 2": "TGGTGGCTACGACGGGATT"}, "B12": {"name": "AGGAAAG (DNA:RNA)", "RNA": "B1 RNA with G25A, C27G, U28A, U29A, A31G", "DNA 1": "CAATCTGAATTCCGGTCTCCC", "DNA 2": "TGGTGGCTACGACGGGATT"}, "B13": {"name": "GGGCUUU (DNA:RNA)", "RNA": "B1 RNA with C27G, U28C, A30U, A31U", "DNA 1": "CAATCTGAATTCCGGTCTCCC", "DNA 2": "TGGTGGCTACGACGGGATT"}, "B14": {"name": "GUCGUGA (DNA:RNA)", "RNA": "B1 RNA with G26U, U28G, A30G", "DNA 1": "CAATCTGAATTCCGGTCTCCC", "DNA 2": "TGGTGGCTACGACGGGATT"}, "B15": {"name": "GGUGUGU (DNA:RNA)", "RNA": "B1 RNA with C27U, U28G, A30G, A31U", "DNA 1": "CAATCTGAATTCCGGTCTCCC", "DNA 2": "TGGTGGCTACGACGGGATT"}, "B16": {"name": "ACACGGA (DNA:RNA)", "RNA": "B1 RNA with G25A, G26C, C27A, U28C, U29G, A30G", "DNA 1": "CAATCTGAATTCCGGTCTCCC", "DNA 2": "TGGTGGCTACGACGGGATT"}, "B17": {"name": "GUGCCAC (DNA:RNA)", "RNA": "B1 RNA with G26U, C27G, U28C, U29C, A31C", "DNA 1": "CAATCTGAATTCCGGTCTCCC", "DNA 2": "TGGTGGCTACGACGGGATT"}, "B18": {"name": "UUCAACU (DNA:RNA)", "RNA": "B1 RNA with G25U, G26U, U28A, U29A, A30C, A31U", "DNA 1": "CAATCTGAATTCCGGTCTCCC", "DNA 2": "TGGTGGCTACGACGGGATT"}, "B19": {"name": "GAACCUG (DNA:RNA)", "RNA": "B1 RNA with G26A, C27A, U28C, U29C, A30U, A31G", "DNA 1": "CAATCTGAATTCCGGTCTCCC", "DNA 2": "TGGTGGCTACGACGGGATT"}, "B20": {"name": "CAUUGAG (DNA:RNA)", "RNA": "B1 RNA with G25C, G26A, C27U, U29G, A31G", "DNA 1": "CAATCTGAATTCCGGTCTCCC", "DNA 2": "TGGTGGCTACGACGGGATT"}, "B21": {"name": "UAGUCAA (DNA:RNA)", "RNA": "B1 RNA with G25U, G26A, C27G, U29C", "DNA 1": "CAATCTGAATTCCGGTCTCCC", "DNA 2": "TGGTGGCTACGACGGGATT"}, "B22": {"name": "GGGUACU (DNA:RNA)", "RNA": "B1 RNA with C27G, U29A, A30C, A31U", "DNA 1": "CAATCTGAATTCCGGTCTCCC", "DNA 2": "TGGTGGCTACGACGGGATT"}, "B23": {"name": "ACACAUG (DNA:RNA)", "RNA": "GGGAGACCGGAAUUCAGAUUGUCCACACAUGUUAAAUCCCGUCGUAGCCACCA", "DNA 1": "CAATCTGAATTCCGGTCTCCC", "DNA 2": "TGGTGGCTACGACGGGATT"}, "B24": {"name": "UCUUUGC (DNA:RNA)", "RNA": "B1 RNA with G25U, G26C, C27U, A30G, A31C", "DNA 1": "CAATCTGAATTCCGGTCTCCC", "DNA 2": "TGGTGGCTACGACGGGATT"}, "B25": {"name": "UAUUUCC (DNA:RNA)", "RNA": "B1 RNA with G25U, G26A, C27U, A30C, A31C", "DNA 1": "CAATCTGAATTCCGGTCTCCC", "DNA 2": "TGGTGGCTACGACGGGATT"}, "B26": {"name": "GUGGGGA (DNA:RNA)", "RNA": "B1 RNA with G26U, C27G, U28G, U29G, A30G", "DNA 1": "CAATCTGAATTCCGGTCTCCC", "DNA 2": "TGGTGGCTACGACGGGATT"}, "B27": {"name": "AAAGACU (DNA:RNA)", "RNA": "B23 RNA with C26A, C28G, U30C, G31U", "DNA 1": "CAATCTGAATTCCGGTCTCCC", "DNA 2": "TGGTGGCTACGACGGGATT"}, "B28": {"name": "CAACCGU (DNA:RNA)", "RNA": "B23 RNA with A25C, C26A, A29C, U30G, G31U", "DNA 1": "CAATCTGAATTCCGGTCTCCC", "DNA 2": "TGGTGGCTACGACGGGATT"}, "B29": {"name": "CGUCAAU (DNA:RNA)", "RNA": "B23 RNA with A25C, C26G, A27U, U30A, G31U", "DNA 1": "CAATCTGAATTCCGGTCTCCC", "DNA 2": "TGGTGGCTACGACGGGATT"}, "B30": {"name": "CUAUGCA (DNA:RNA)", "RNA": "B1 RNA with G25C, G26U, C27A, U29G, A30C", "DNA 1": "CAATCTGAATTCCGGTCTCCC", "DNA 2": "TGGTGGCTACGACGGGATT"}, "B31": {"name": "CGCCUGG (DNA:RNA)", "RNA": "B1 RNA with G25C, U28C, A30G, A31G", "DNA 1": "CAATCTGAATTCCGGTCTCCC", "DNA 2": "TGGTGGCTACGACGGGATT"}}, "note": "Where a chain is given by its changes, count along the chain named. The list shows a part of the results.", "data": [{"molecular_target": "T1, RBFOX1 RRM (Homo sapiens, UniProt Q9NWB1 109-208)", "T1 sequence": "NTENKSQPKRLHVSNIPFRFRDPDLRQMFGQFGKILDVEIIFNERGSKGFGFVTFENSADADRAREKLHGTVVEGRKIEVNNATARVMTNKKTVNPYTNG", "assay": "EMSA; HiTS-Eq, 1 nM pool, 10 min; buffer printed only for the single-RNA assays: 10 mM Tris pH 7.5, 150 mM NaCl, 3.4 mM EDTA, 0.001% NP-40, 30 C", "details": "tags: His6 N-terminal (pET28a); label: 5' 32P", "in_short": "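Purified RbFox RRM, wild type or mutant, was incubated for 10 min in 50 µL with 1 nM of a 5′-radiolabelled RNA pool carrying 7 randomized nucleotides, whose flanks were annealed to DNA oligonucleotides, over a series of increasing protein concentrations. Unbound RNA was resolved on 8% native PAGE, cut out, reverse-transcribed, barcoded by PCR and sequenced on an Illumina HiSeq 2500. Relative association constants were derived from changes in read counts for each RNA species versus the control reaction and normalised to the cognate motif.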", "values": [{"binder": "B1", "binding signal": "0.00543 KA relative to UGCAUGU"}, {"binder": "B2", "binding signal": "0.00579 KA relative to UGCAUGU"}, {"binder": "B3", "binding signal": "0.0101 KA relative to UGCAUGU"}, {"binder": "B4", "binding signal": "0.00957 KA relative to UGCAUGU"}, {"binder": "B5", "binding signal": "0.00724 KA relative to UGCAUGU"}, {"binder": "B6", "binding signal": "0.0009 KA relative to UGCAUGU"}, {"binder": "B7", "binding signal": "0.0185 KA relative to UGCAUGU"}, {"binder": "B8", "binding signal": "0.00793 KA relative to UGCAUGU"}, {"binder": "B9", "binding signal": "0.0393 KA relative to UGCAUGU"}, {"binder": "B10", "binding signal": "0.0143 KA relative to UGCAUGU"}, {"binder": "B11", "binding signal": "0.0051 KA relative to UGCAUGU"}, {"binder": "B12", "binding signal": "0.0184 KA relative to UGCAUGU"}, {"binder": "B13", "binding signal": "0.0244 KA relative to UGCAUGU"}, {"binder": "B14", "binding signal": "0.017 KA relative to UGCAUGU"}, {"binder": "B15", "binding signal": "0.0173 KA relative to UGCAUGU"}, {"binder": "B16", "binding signal": "0.0022 KA relative to UGCAUGU"}, {"binder": "B17", "binding signal": "0.0082 KA relative to UGCAUGU"}, {"binder": "B18", "binding signal": "0.00328 KA relative to UGCAUGU"}, {"binder": "B19", "binding signal": "0.014 KA relative to UGCAUGU"}, {"binder": "B20", "binding signal": "0.0155 KA relative to UGCAUGU"}, {"binder": "B21", "binding signal": "0.00758 KA relative to UGCAUGU"}, {"binder": "B22", "binding signal": "0.0165 KA relative to UGCAUGU"}, {"binder": "B23", "binding signal": "0.00404 KA relative to UGCAUGU"}, {"binder": "B24", "binding signal": "0.0199 KA relative to UGCAUGU"}, {"binder": "B25", "binding signal": "0.00467 KA relative to UGCAUGU"}, {"binder": "B26", "binding signal": "0.0134 KA relative to UGCAUGU"}, {"binder": "B27", "binding signal": "0.00125 KA relative to UGCAUGU"}, {"binder": "B28", "binding signal": "0.00135 KA relative to UGCAUGU"}, {"binder": "B29", "binding signal": "0.00291 KA relative to UGCAUGU"}, {"binder": "B30", "binding signal": "0.0127 KA relative to UGCAUGU"}, {"binder": "B31", "binding signal": "0.0272 KA relative to UGCAUGU"}]}]}
